Assay results taken from the supplement of paper PMC12645437, “Orthogonal IMiD-Degron Pairs Induce Selective Protein Degradation in Cells” (ACS Chemical Biology, 2025).
This is one part of the list.

molecular target: no compound (DMSO); assay: log2 fold change of degron read counts, EGFP-low vs EGFP+ sorted cells; higher = lower degron-EGFP level without compound (poor expression or instability); conditions: compound: DMSO control; 18 h
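Also: jurkat cells carrying a lentiviral library of mutant zinc finger degrons fused to EGFP plus mCherry, mCherry+ cells FACS sorted, degron abundance counted by next-generation sequencing.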

Sequence	log2 fold change of degron read counts
FDCEQCGADFTQKGNLLRHIKL	-1.02
FYCDQCGAIFTQKGNLLRHIKL	-0.263
FDCNQCGHVFTQKGNLLRHIKL	0.705
FDCNICGAWFTQKGNLLRHIKL	0.926
FYCNQCGAGFTQKGNLLRHIKL	-0.259
FWCPICGHSFTQKGNLLRHIKL	1.07
LLCEICGFLCTQKGNLLRHIKL	1.37
FMCEVCGARFTQKGNLLRHIKL	-1.65
FTCPVCGAMFTQKGNLLRHIKL	-0.185
FRCDICGAAFTQKGNLLRHIKL	-1.19
LYCPICGFGCTQKGNLLRHIKL	1.34
FVCPVCGAYFTQKGNLLRHIKL	0.865
FQCDVCGASFTQKGNLLRHIKL	-2.15
LMCNQCGFPCTQKGNLLRHIKL	0.289
FWCDVCGAPFTQKGNLLRHIKL	-0.561
FGCPICGARFTQKGNLLRHIKL	-1.29

Sequence	log2 fold change of degron read counts
LMCPICGFVCTQKGNLLRHIKL	0.928
FQCPICGHIFTQKGNLLRHIKL	-0.259
FECSVCGHAFTQKGNLLRHIKL	-1.39
FQCEICGRYFTQKGNLLRHIKL	-1.22
FLCPICGHTFTQKGNLLRHIKL	-1.2
FVCEICGHVFTQKGNLLRHIKL	-1.33
FRCEQCGAMFTQKGNLLRHIKL	-1.64
FECEICGHYFTQKGNLLRHIKL	-1.09
FFCSVCGHPFTQKGNLLRHIKL	0.827
FICPICGHFFTQKGNLLRHIKL	0.574
FNCEICGRLFTQKGNLLRHIKL	-0.777
FYCEVCGAAFTQKGNLLRHIKL	-0.879
FECEICGREFTQKGNLLRHIKL	-2.03
FICNQCGHIFTQKGNLLRHIKL	0.505
FNCDQCGASFTQKGNLLRHIKL	-1.74
FICPVCGAHFTQKGNLLRHIKL	-0.0492
